Experimental data: the supplement of paper PMC4967469

compound: FC(F)c1nc2ccccc2n1-c1nc(N2CCOCC2)nc(N2CCOCC2)n1 [ZSTK474]; test: Viability of human cancer cell lines after 72 h of drug (GDSC screen)
Method: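 Human cancer cell lines in 384-well plates, medium with 10% serum, drug for 72 h over a 256-fold dose range (nine 2-fold or five 4-fold steps up to the top dose). Adherent lines were fixed and stained with the nucleic acid dye Syto60, suspension lines read with resazurin; signal relative to control wells, capped at 0 and 100%. One two-parameter sigmoid per drug and line, fitted in a mixed model over all curves with the slope shared within a line.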

| Cell Line | AUC | IC50 |
| --- | --- | --- |
| MC116 (B-cell lymphoma, suspension, top dose 5.12 µM) | 0.449 | 241 nM |
| MC-CAR (haematopoietic neoplasm, suspension, top dose 5.12 µM) | 0.301 | 94.8 nM |
| MC-IXC (neuroblastoma, adherent, top dose 5.12 µM) | 0.908 | 3660 nM |
| MCF7 (breast, adherent, top dose 5.12 µM) | 0.986 | > 5120 nM |
| MDA-MB-157 (breast, adherent, top dose 5.12 µM) | 0.978 | > 5120 nM |
| MDA-MB-175-VII (breast, adherent, top dose 5.12 µM) | 0.617 | 695 nM |
| MDA-MB-231 (breast, adherent, top dose 5.12 µM) | 0.929 | > 5120 nM |
| MDA-MB-330 (breast, adherent, top dose 5.12 µM) | 0.824 | 3610 nM |
| MDA-MB-361 (breast, adherent, top dose 5.12 µM) | 0.687 | 1060 nM |
| MDA-MB-415 (breast, adherent, top dose 5.12 µM) | 0.898 | > 5120 nM |
| MDA-MB-436 (breast, adherent, top dose 5.12 µM) | 0.937 | > 5120 nM |
| MDA-MB-453 (breast, adherent, top dose 5.12 µM) | 0.551 | 448 nM |
| MDST8 (large intestine, adherent, top dose 5.12 µM) | 0.867 | 4570 nM |
| ME-1 (acute myeloid leukaemia, suspension, top dose 5.12 µM) | 0.924 | > 5120 nM |
| ME-180 (cervix, adherent, top dose 5.12 µM) | 0.586 | 556 nM |
| MEG-01 (chronic myeloid leukaemia, suspension, top dose 5.12 µM) | 0.744 | 1520 nM |
| MEL-JUSO (melanoma, adherent, top dose 5.12 µM) | 0.792 | 2640 nM |

| Cell Line | AUC | IC50 |
| --- | --- | --- |
| MES-SA (uterus, adherent, top dose 5.12 µM) | 0.868 | 3560 nM |
| MFE-280 (endometrium, adherent, top dose 5.12 µM) | 0.566 | 509 nM |
| MFE-296 (endometrium, adherent, top dose 5.12 µM) | 0.83 | 3530 nM |
| MFE-319 (endometrium, adherent, top dose 5.12 µM) | 0.78 | 2040 nM |
| MFH-ino (soft tissue, adherent, top dose 5.12 µM) | 0.825 | 3800 nM |
| MFM-223 (breast, adherent, top dose 5.12 µM) | 0.921 | > 5120 nM |
| MG-63 (osteosarcoma, adherent, top dose 5.12 µM) | 0.977 | > 5120 nM |
| MHH-ES-1 (Ewing sarcoma, adherent, top dose 5.12 µM) | 0.493 | 305 nM |
| MHH-NB-11 (neuroblastoma, adherent, top dose 5.12 µM) | 0.935 | > 5120 nM |
| MHH-PREB-1 (B-cell leukaemia, suspension, top dose 5.12 µM) | 0.611 | 624 nM |
| MIA-PaCa-2 (pancreas, adherent, top dose 5.12 µM) | 0.908 | > 5120 nM |
| MKN1 (stomach, adherent, top dose 5.12 µM) | 0.76 | 1890 nM |
| MKN28 (stomach, adherent, top dose 5.12 µM) | 0.935 | > 5120 nM |
| MKN45 (stomach, adherent, top dose 5.12 µM) | 0.746 | 2000 nM |
| ML-1 (thyroid, adherent, top dose 5.12 µM) | 0.875 | > 5120 nM |
| ML-2 (acute myeloid leukaemia, suspension, top dose 5.12 µM) | 0.267 | 75.8 nM |

IC50 is the fitted dose that halves viability relative to control wells, and lower means more sensitive; a fit beyond the top or the lowest dose is shown as a bound at that dose. AUC sums up the same curve from the lowest dose to the 256-fold higher top dose; it is 1 without any effect and falls as sensitivity rises.
